# Reference: patent US20260209358A1
# T1: CD37 on CD37+ target tumor cells (Daudi or Ramos cells) (UniProt P11049)
# T1 sequence (looked up): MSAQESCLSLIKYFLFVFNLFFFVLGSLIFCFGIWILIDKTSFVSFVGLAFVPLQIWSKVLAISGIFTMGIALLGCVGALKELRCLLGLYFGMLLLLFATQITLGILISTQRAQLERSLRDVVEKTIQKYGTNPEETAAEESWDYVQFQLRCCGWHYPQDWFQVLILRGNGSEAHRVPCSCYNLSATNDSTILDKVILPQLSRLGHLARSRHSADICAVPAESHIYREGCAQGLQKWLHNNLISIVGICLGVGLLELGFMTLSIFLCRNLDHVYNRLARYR
# B1: AGS67C IgG (parent CD37 IgG) (antibody, V domains shown)
# VH: QVQLQQWGAGLLKPSETLSLTCAVYGGSFSPYYWSWIRQPPGKGLEWIGEINHSGSTNYNPSLKSRVTISVDTSKNQFSLKLSSVTAADTAVYYCARRAGDFDYWGQGTLVTVSS
# VL: [about 100 residues left out here]FGQGTKLEIKR
# Biological target: T1, CD37 on CD37+ target tumor cells (Daudi or Ramos cells)
# Assay: cell-based or functional assay
binder,measurement,value
B1,EC50 of ADCC (calcein release) on Ramos cells with primary human NK cells,0.00933 nM
same,EC50 of ADCP on Ramos cells with THP-1 effector cells,0.0191 nM
same,EC50 of CDC (PI+ cells) on Daudi cells with normal human serum,0.51 nM
